Source: PubChem BioAssay AID463173 (ICCB-Longwood Screening Facility, Harvard Medical School, 2010)
About 1,700 (3.3%) of roughly 52,000 compounds were called active. Rule as the data show it: active = survival mostly below about 52% (no sharp cut-off); inactive = mostly above about 56%. The list shows a part of the results.

These compounds were tested on Wild type (assay: growth inhibition of S. aureus wild type versus tarO mutant, primary screen, teichoic acid synthesis inhibitors, RN4220, OD600 (AID 463173)). Conditions: S. aureus RN4220 wild type/DeltatarO growth, OD600, 18 h, hits give low values, screened at 18.75 µg/mL (by protocol).
`O=C(O)CCC1NC(=O)NC1=O` (stereo not given) was tested, and the survival was inactive: 117%. With `CCOC(=O)c1ccc(NC(=O)c2nc(SCc3ccccc3F)ncc2Cl)cc1` the survival was inactive: 87%. With `COc1cc(C2C(C(=O)Nc3ccccc3)=C(C)Nc3nnnn32)cc(OC)c1OC` (stereo not given) the survival was inactive: 101%. `COc1ccc(-c2noc(CN(C(=O)c3cc(OC)c(OC)cc3OC)C(C)C)n2)cc1` was tested, and the survival was inactive: 86%. `CCCCOC(=O)c1ccc(Nc2nnc(-n3nc(C)cc3C)c3ccccc23)cc1` was tested, and the survival was inactive: 120%. `Cc1nnc2c3ccccc3nc(Nc3cccc(O)c3)n12` was tested, and the survival was inactive: 78%. For `CCOc1ccc2nc(N3CCCC(C(=O)NCc4ccccc4OC)C3)sc2c1` (stereo not given), the survival was inactive: 85%. For `Cc1ccc(Cl)cc1NC(=O)C1CCN(c2nc3ccccc3n3cccc23)CC1`, the survival was inactive: 83%. `CCCn1c2ccccc2c2cnn(CC(=O)NCCc3ccc(C)cc3)c(=O)c21` was tested, and the survival was inactive: 121%. In the case of `Cc1ccc(/C=C/c2onc(C)c2S(=O)(=O)N2CCC(C(=O)Nc3cc(F)ccc3F)CC2)cc1`, the survival is reported as inactive: 72%. For `O=C(CC(c1ccc(Cl)cc1)S(=O)(=O)c1ccccc1)c1ccco1` (stereo not given), the survival was inactive: 107%. With `CCOc1ccc(S(=O)(=O)Nc2cc(Cl)ccc2OC)c2cccnc12` the survival was inactive: 90%. In the case of `Cc1cc(C)c2oc(C(=O)Nc3ccc(S(=O)(=O)Nc4nccc(C)n4)cc3)cc(=O)c2c1`, the survival is reported as inactive: 70%. For `CC(C)Nc1nc(NC(N)=O)nc(NC(C)C)n1`, the survival was inactive: 103%. With `COCCn1c(=O)[nH]c2cc(C(=O)Nc3cccc(C(C)=O)c3)ccc2c1=O` the survival was inactive: 73%. In the case of `COc1ccc(Nc2oc(/C=C/c3ccc(OC)c(OC)c3)nc2C#N)cc1`, the survival is reported as inactive: 95%. In the case of `CCc1nn(CC(=O)NCCCOC)c(=O)c2cc3ccccc3n12`, the survival is reported as inactive: 91%. For `Cc1ccc(CN2CCCn3nc(C(=O)NCC(C)c4ccccc4)cc3C2=O)cc1` (stereo not given), the survival was inactive: 87%. With `CCCn1c(CCC(=O)Nc2ccccc2OC)nc2cccnc21` the survival was inactive: 89%. `CCOc1ccc(S(=O)(=O)NCCc2sc3nc(-c4ccc(C)cc4)nn3c2C)cc1` was tested, and the survival was inactive: 129%. `Cc1cc(C)cc(-n2ccn(Cc3ccc(F)cc3)c(=O)c2=O)c1` was tested, and the survival was inactive: 85%. In the case of `Cc1cccc(C)c1Nc1c(-c2ccc(O)cc2)nc2sccn12`, the survival is reported as inactive: 44%. `O=c1c2sc3ccccc3c2n(Cc2cccc(C(F)(F)F)c2)c(=O)n1Cc1ccc(F)cc1` was tested, and the survival was inactive: 128%. With `O=c1oc2ccccc2cc1-c1cn2cc(Cc3ccc(Br)cc3)sc2n1` the survival was inactive: 84%. With `COc1ccc2oc(-c3cccc(NC(=O)c4sc5c([N+](=O)[O-])cccc5c4Cl)c3)nc2c1` the survival was inactive: 92%. With `COc1ccc(NC(=O)CC2C(=O)N(c3cccc(OC)c3)C(=O)N2Cc2ccc3c(c2)OCO3)cc1` (stereo not given) the survival was inactive: 79%. With `Cc1ccc(-c2cn(-c3ccc(Cl)cc3)c(S(=O)(=O)CC(=O)Nc3ccccc3)n2)cc1` the survival was inactive: 78%. `Cc1cc(C)cc(NC(=O)C2CCN(S(=O)(=O)c3cccc(-c4noc(C)n4)c3)CC2)c1` was tested, and the survival was active: -6%. For `COc1ccc(S(=O)(=O)c2nnn(-c3ccc(C)c(Cl)c3)c2C)cc1`, the survival was inactive: 115%. In the case of `Cc1cc(NC(=O)CSc2ccccc2)no1`, the survival is reported as inactive: 103%. With `Cc1ccc(CNC(=O)CCCN2C(=O)COc3ccc(C)cc32)cc1` the survival was inactive: 77%. For `CC(C)NC(=O)C1CCN(C(=O)c2ccc(Cl)cc2)CC1`, the survival was inactive: 87%. In the case of `CC1=Nc2cc(C(=O)NC(C)C)ccc2Sc2ccc(C)cc21`, the survival is reported as inactive: 77%. `Cc1cc(-c2ccccc2)c(C#N)c(N)n1` was tested, and the survival was inactive: 103%. With `Fc1ccc(Br)cc1C1C=C(c2ccc(Br)cc2)Nc2nnnn21` (stereo not given) the survival was inactive: 81%. `Cc1cccc(NC(=O)C(=O)NCCc2csc(-c3ccc(C(F)(F)F)cc3)n2)c1C` was tested, and the survival was inactive: 99%. With `O=C(CC1N=C2c3ccccc3N=C(SCC(=O)Nc3ccccc3F)N2C1=O)NCc1cccs1` (stereo not given) the survival was inactive: 73%. With `CN(C)/C(=N\O)c1nonc1N` the survival was inactive: 106%. In the case of `CC1CCc2c(sc(NC(=O)c3cc(-c4ccc(F)cc4)on3)c2C(N)=O)C1` (stereo not given), the survival is reported as inactive: 74%. With `Cc1ccc2sc(N(Cc3cccnc3)C(=O)C3COc4ccccc4O3)nc2c1C` (stereo not given) the survival was inactive: 60%. In the case of `Cc1ccc(NC(=O)c2c(NC(=O)c3ccccc3)sc3c2CCC3)cc1`, the survival is reported as inactive: 79%. In the case of `Cc1c(C#N)c2ccccc2n1CC(=O)NC1CCCCCC1`, the survival is reported as inactive: 107%. For `CCc1ccc(CN(C(=O)c2cc(=O)c3ccc(C)cc3o2)C2CCS(=O)(=O)C2)cc1` (stereo not given), the survival was inactive: 107%. `COc1cccc(CNC(=O)CCCn2nc(C)c3c(C)n(-c4ccc(C)cc4)nc3c2=O)c1OC` was tested, and the survival was inactive: 78%. `CCN(CC)CCNC(=O)c1ccc(-n2c(-c3ccccc3)cc3c2CCCC3)cc1` was tested, and the survival was active: 2%. `CN(C)S(=O)(=O)c1ccc2c(c1)C(CC(=O)O)OC2=O` (stereo not given) was tested, and the survival was inactive: 103%. In the case of `O=C(O)c1cccc(N=NN2CCOCC2)c1`, the survival is reported as inactive: 110%. `CC(C)Cn1c(=O)c2sccc2n2c(CCCC(=O)NC3CCCCC3)nnc12` was tested, and the survival was inactive: 100%. For `CCCCc1ccc(NC(=O)C2(C)Cc3ccccc3C(=O)O2)cc1` (stereo not given), the survival was inactive: 83%. For `CCc1ccc(C2CC(=O)Oc3c2c(=O)n(C)c2ccccc32)cc1` (stereo not given), the survival was inactive: 64%. In the case of `Cc1cccc(-c2nc(C(N)=O)c3c(n2)n(-c2ccc4c(c2)OCO4)c(=O)n3C)c1`, the survival is reported as inactive: 68%. In the case of `COc1ccc(N(C)C(=O)c2cc(S(=O)(=O)N3CCc4ccccc43)cn2C)c(OC)c1`, the survival is reported as inactive: 99%. `Cc1ccc(C2C(C#N)=C(N)OC3=C2C(=O)CC(C)(C)C3)s1` (stereo not given) was tested, and the survival was inactive: 107%. With `Cc1ccc(CN(Cc2ccco2)c2cnc(S(C)(=O)=O)nc2C(=O)Nc2ccccc2Br)o1` the survival was inactive: 94%. In the case of `Cc1cc(C)cc(NC(=O)Cn2cc(C(=O)c3ccccc3)c(=O)c3ccc(C)nc32)c1`, the survival is reported as inactive: 71%. In the case of `Cn1c(=O)c2nc(SCC(=O)Nc3ccc(Cl)c(Cl)c3)n(C)c2n(C)c1=O`, the survival is reported as inactive: 76%. For `COC(=O)CN1C(=O)C(O)(CC(=O)c2ccc(F)cc2)c2ccccc21` (stereo not given), the survival was inactive: 76%. For `CCOC(=O)CSc1nc2ccc(NC(=O)COc3ccccc3C)cc2s1`, the survival was inactive: 105%. For `Cc1ccc(-n2c3nc(=O)[nH]c(=O)c-3cc3c(C)nn(-c4ccccc4)c32)c(C)c1`, the survival was inactive: 91%. In the case of `Cc1ccc(Cl)cc1NC(=O)CCS(=O)(=O)c1ccc2c(c1)n(C)c(=O)c(=O)n2C`, the survival is reported as inactive: 87%. `Cc1nn(CC(=O)N2CCCCC2)c(=O)c2cc3occc3n12` was tested, and the survival was inactive: 115%. With `O=C(Nc1ccc(Cl)cc1)c1cc2c(-c3ccccc3)nn(-c3ccccc3)c2s1` the survival was inactive: 66%. For `O=C1CSC2(CCCCC2)N1c1ccc(Cl)cc1`, the survival was inactive: 102%. With `CC(C)Cn1cc(NC(=O)NCc2ccccc2Cl)c2ccccc2c1=O` the survival was inactive: 80%. For `CC(NC(=O)C1CCN(S(=O)(=O)c2ccc3nc4c(c(C(=O)O)c3c2)CCCC4)CC1)c1ccccc1` (stereo not given), the survival was inactive: 114%. For `COc1cccc(NC(=O)c2ccc3nc(Cc4ccccc4)oc3c2)c1`, the survival was inactive: 53%. For `COc1ccc(-c2cc(C(=O)Nc3sc4c(c3C#N)CCCC4)no2)cc1OC`, the survival was inactive: 80%. In the case of `Cc1ccc(NC(=O)CCS(=O)(=O)c2cc(Br)cc3c2N(C(=O)C2CC2)CC3)cc1`, the survival is reported as inactive: 85%. With `O=C(CSc1oc(-c2ccccc2)nc1S(=O)(=O)c1ccccc1)c1ccccc1` the survival was inactive: 139%. For `CC1CCCCN1C(=O)CSc1nc2ccccc2c(=O)[nH]1` (stereo not given), the survival was inactive: 102%. For `CCc1ccc(-n2c(SCc3cccc(F)c3)nc3[nH]ncc3c2=O)cc1`, the survival was inactive: 89%. `O=c1oc2ccccc2cc1-c1cn2cc(Cc3ccccc3F)sc2n1` was tested, and the survival was inactive: 78%. For `Cc1ccc(Cn2c(SCc3ccc(C(=O)NC4CCCC4)cc3)nc3ccncc32)cc1`, the survival was inactive: 90%. `CCn1c(=O)cc(OCC(=O)Nc2ccc(C)c(F)c2)c2ccccc21` was tested, and the survival was inactive: 76%. In the case of `Cc1ccc2nc(NCCc3ccccc3)c3nncn3c2c1`, the survival is reported as inactive: 82%. With `Cc1nn(-c2ccccc2)c(OC(=O)C(C)(C)C)c1Sc1ccccc1` the survival was inactive: 51%. For `COCCn1c(=N)c(C(=O)NCc2ccco2)cc2c(=O)n3cc(C)ccc3nc21`, the survival was inactive: 71%. In the case of `Cc1ccc(-n2c(-c3ccco3)nc3c(cnn3-c3ccccc3C)c2=O)cc1`, the survival is reported as inactive: 121%. In the case of `Cc1cccc(-n2c(=O)c3c(c4cc(C)ccc4n3C)n(CC(=O)Nc3ccc(C)cc3C)c2=O)c1`, the survival is reported as inactive: 97%. In the case of `Nc1cc(N)nc(SCc2ccccc2C(F)(F)F)n1`, the survival is reported as inactive: 115%. `Cc1ccc(C(=O)Nc2ccc3oc(-c4ccncc4)nc3c2)c(Cl)c1` was tested, and the survival was inactive: 84%. For `Cc1nnc(NC(=O)C(=O)c2cc(C)n(-c3ccc(C)c(C)c3)c2C)s1`, the survival was inactive: 104%. With `CCCC(=O)c1ccc(OC(=O)c2c(-c3ccccc3Cl)noc2C)cc1` the survival was inactive: 124%. For `COc1ccc(-c2ccc(CCC(=O)O)n2CC(=O)Nc2cccc(C(F)(F)F)c2)cc1`, the survival was inactive: 85%. For `COc1ccc(-c2cn3c(n2)sc2cc(C(=O)Nc4cc(OC)cc(OC)c4)ccc23)cc1`, the survival was inactive: 98%. In the case of `CCc1ccc(-n2c(=O)c3cccnc3n2CC(=O)Nc2ccccc2C(F)(F)F)cc1`, the survival is reported as inactive: 68%. For `N#Cc1c(NC(=O)CS(=O)(=O)c2ccc(Cl)cc2)sc2c1CCCCC2`, the survival was inactive: 72%. For `Cc1ccc2nsnc2c1S(=O)(=O)N1CCCC1`, the survival was inactive: 128%. `CCOC(=O)c1c(NC(C)=O)c2c3c(sc2n1Cc1nc(-c2cccc(C)c2)oc1C)CCCC3` was tested, and the survival was inactive: 89%. In the case of `CCOc1ccccc1NC(=O)NC1CC2CCCC(C1)N2Cc1nnnn1CCc1ccccc1` (stereo not given), the survival is reported as inactive: 91%.
